# Assay results taken from PubChem BioAssay AID1259400 (National Center for Advancing Translational Sciences (NCATS), 2018).
# Among all 350,000 compounds or so, about 2,100 (0.6%) were called active. Inconclusive means that the source gave no clear call. Such entries were picked first, then a sample of the others.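 How the source made its calls: active means activity change of -60% or lower, but not beyond a set lower limit; inconclusive means change between -60% and -40%, or beyond the set limit; inactive means change above -40%.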
# Biological target: Relaxin receptor 1 (Homo sapiens) (UniProt Q9HBX9)
# Sequence of UniProt Q9HBX9 (Q9HBX9 whole entry, looked up): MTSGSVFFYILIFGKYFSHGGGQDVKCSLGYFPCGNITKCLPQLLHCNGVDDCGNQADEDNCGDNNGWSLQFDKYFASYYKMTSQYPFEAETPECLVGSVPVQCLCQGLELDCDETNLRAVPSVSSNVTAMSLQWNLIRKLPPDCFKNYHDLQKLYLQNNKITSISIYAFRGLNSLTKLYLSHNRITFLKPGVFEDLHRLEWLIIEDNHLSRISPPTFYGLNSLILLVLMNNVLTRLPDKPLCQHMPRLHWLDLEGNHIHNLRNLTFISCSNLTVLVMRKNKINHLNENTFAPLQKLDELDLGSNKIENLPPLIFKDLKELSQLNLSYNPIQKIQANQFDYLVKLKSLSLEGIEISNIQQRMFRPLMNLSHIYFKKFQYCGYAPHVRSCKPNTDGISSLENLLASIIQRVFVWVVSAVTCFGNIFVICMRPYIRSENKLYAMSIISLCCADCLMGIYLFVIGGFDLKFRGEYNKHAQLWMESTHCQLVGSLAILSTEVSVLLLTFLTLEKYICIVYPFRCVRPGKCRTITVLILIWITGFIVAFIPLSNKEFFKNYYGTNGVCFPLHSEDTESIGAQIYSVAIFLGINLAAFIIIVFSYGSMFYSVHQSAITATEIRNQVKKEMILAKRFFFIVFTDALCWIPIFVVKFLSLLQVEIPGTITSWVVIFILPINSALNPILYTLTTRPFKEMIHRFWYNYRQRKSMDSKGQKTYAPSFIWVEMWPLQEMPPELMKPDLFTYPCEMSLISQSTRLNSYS
# Assay: qHTS Assay for Antagonists of the Relaxin Receptor RXFP1
# Settings: HEK293-RXFP1, relaxin-stimulated cAMP HTRF, 30 min; at 57.5 µM; stronger effect = lower value
# On the % scale 0 is the no-effect control and ±100 the full control effect.
row,SMILES,"activity change, negative = inhibition"
1,C=C(C)C1CC=C(C)/C(=N/NC(=O)CCC(=O)Nc2ccccc2Cl)C1 (stereo unspecified),inconclusive: -41%
2,Fc1ccc(CSc2ncnc3sc4c(c23)CCCC4)cc1,inactive: -4.77%
3,N#C/C(C(=O)N1CCCCC1)=C1\Nc2ccccc2S1,inactive: -9.67%
4,Cc1ccc(S(=O)(=O)CC(=O)N(CCCN2CCOCC2)c2nc3c(F)cccc3s2)cc1,inconclusive: -40%
5,CCOC(=O)c1c(-c2ccc(C)cc2)csc1NC(=O)c1cc(=O)c2cc(C)ccc2o1,inactive: 11.7%
6,Cc1ccc(S(=O)(=O)CC(=O)c2ccc3c(c2)OCCO3)cc1,inconclusive: -57.9%
7,O=C(Nc1ccnn1C1CCN(CC2CC=CCC2)CC1)c1ccccc1 (stereo unspecified),inactive: 6.05%
8,C=CCC(C)(NCc1ccccc1)c1ccc(C)cc1 (stereo unspecified),inconclusive: -45.2%
9,CCCCCOc1ccc(CSC(=N)N)cc1[N+](=O)[O-],inconclusive: -53.5%
10,Cc1ccc(C)c(Cn2c(C(=O)O)c(CNCc3cccs3)c3ccccc32)c1,active: -81.9%
11,Cc1cccc(CCN(C(=O)c2csnn2)C(C(=O)NC2CCCC2)c2ccco2)c1 (stereo unspecified),active: -73.3%
12,CCCCCOc1ccccc1/C(=C\SC)n1ccnc1,inconclusive: -46.3%
13,CCN1C(=O)/C(=C\c2nc3ccccc3c(=O)n2CC)c2ccccc21,inconclusive: -44.7%
14,O=C(CSc1nc2[nH]ncc2c(=O)[nH]1)c1ccccc1,inconclusive: -46.9%
15,O=C(CN1C(=O)CCSc2ccccc21)NC1CCCCC1,inconclusive: -43.1%
16,NS(=O)(=O)c1ccc(CCNC(=O)C2CCC(Cn3c(=S)[nH]c4ccccc4c3=O)CC2)cc1 (stereo unspecified),active: -68.8%
17,CC(C)Cn1cnc2c1c(=O)n(CC(=O)Nc1ccc3c(c1)OCO3)c(=O)n2Cc1ccccc1,inactive: -7.58%
18,COc1ccc2cc3c(N)nn(C(=O)c4ccccc4Cl)c3nc2c1,inactive: -1.5%
19,CC(=O)O[C@]1(C(C)=O)CC[C@H]2[C@@H]3C=C(Cl)C4=CC(=O)CC[C@]4(C)[C@H]3CC[C@@]21C,active: -83.4%

row,SMILES,"activity change, negative = inhibition"
1,N=C1S/C(=C\c2ccco2)C(=O)N1c1ccc2c(c1)OCO2,inconclusive: -44.9%
2,COc1ccc(NC(=O)c2nc(S(=O)(=O)Cc3cccc(C)c3)ncc2Cl)c(OC)c1,inactive: -0.87%
3,O=C(Nc1ccc(OC(F)(F)F)cc1)Nc1cccc([N+](=O)[O-])c1,active: -74.5%
4,CCc1ccc(C2CC(c3ccc(Cl)cc3)=NNC2=O)cc1 (stereo unspecified),inconclusive: -54.1%
5,O=C(O)c1ccc(N/N=C/c2cn(-c3ccccc3)nc2-c2cccs2)cc1,active: -105%
6,CCC(=O)Nc1cccc(-c2nc3ccc(C)cc3o2)c1,inconclusive: -51.4%
7,COCC1CCN(Cc2cn(C)nc2-c2cccc(Cl)c2)C1 (stereo unspecified),inactive: -1.27%
8,S=c1[nH]nc(-c2cc(-c3ccccc3)n[nH]2)n1/N=C/C(Br)=C/c1ccccc1,inconclusive: -52.6%
9,O=C(Nc1nnc(-c2ccccc2F)s1)c1ccccc1F,inconclusive: -41.3%
10,CCOc1cccc2sc(N(CCN(C)C)C(=O)c3cc4ccccc4cc3OC)nc12,inconclusive: -57.5%
11,CCc1ccccc1NC(=O)CCCN1C(=O)CCn2nc(-c3cn(C)c4ccccc34)cc21,inactive: 0.147%
12,COc1cc(Nc2nc(SCc3ccccc3Cl)nc3ccccc23)cc(OC)c1,inactive: -25.3%
13,COc1ccc(-c2cc(C(F)(F)F)n3ncc(-c4ccccc4)c3n2)cc1,inactive: 6.34%
14,COc1cc2c(cc1NC(=O)COc1ccc(Br)cc1)oc1ccccc12,inactive: 9.84%
15,O=C(NC1CCCC1)c1ccccc1OCc1ccccc1,active: -81.8%
16,C=CCn1c(CCn2c3ccccc3c3ccccc32)n[nH]c1=S,inconclusive: -49.2%
17,CCN(CC)c1ccc(N=C2C(=O)Nc3ccccc32)cc1,inconclusive: -52.1%
18,CC(Oc1ccc(Cl)cc1Cl)C(=O)NC(=S)N1CCc2ccccc21 (stereo unspecified),inconclusive: -48.6%
19,CC1(C)CC(=O)C=C(NC2=CC3OC(c4ccccc4)OCC3OC2=O)C1 (stereo unspecified),inconclusive: -49.5%

row,SMILES,"activity change, negative = inhibition"
1,CN(C)CCCN(C(=O)c1cc(-c2cccs2)nc2ccccc12)c1nc2ccc(F)cc2s1,inconclusive: -41.4%
2,CCC1CN(C(=O)NCc2ccc(F)cc2)c2cc(Cl)ccc2O1 (stereo unspecified),inconclusive: -52.9%
3,CN(Cc1ccccc1)CC(O)CN(C)Cc1ccccc1,inconclusive: -49.7%
4,COc1ccc2[nH]c3c4c(ccc3c2c1)C(=O)C=CC4=O,inconclusive: -46.8%
5,COc1cccc(C(=O)NNC(=O)C(=O)Nc2ccc(C)c(Cl)c2)c1,inconclusive: -47.7%
6,Cc1cccc(C(=O)N2CCN(c3ccccn3)CC2)c1,inactive: -16.7%
7,COC(Cn1c2c(c3cc(C)ccc31)CCCC2NCc1ccccc1)OC (stereo unspecified),inconclusive: -44.5%
8,CC(=O)c1ccc(NC(=O)CSc2nnc(-c3ccco3)c(-c3ccco3)n2)cc1,active: -71.4%
9,COc1cccc(NC(=O)CN(C)C(=O)c2cc(-c3ccc(F)cc3)nc3ccccc23)c1,inconclusive: -46.9%
10,C=CCN(c1ccccc1)S(=O)(=O)c1cccc(C(=O)Nc2cc(C)ccn2)c1,inconclusive: -42.2%
11,CCOc1ccccc1NC(=O)c1cc(-c2cc(OC)c(OC)c(OC)c2)nc2ccccc12,inactive: 7.65%
12,OC(CNCC1CCCO1)Cn1c2ccc(Cl)cc2c2cc(Cl)ccc21 (stereo unspecified),inconclusive: -43.4%
13,CCOC(=O)C/C(C)=N\Nc1nc(-c2ccccc2)cs1,inactive: -18.7%
14,c1ccc2c(SCc3cn4ccccc4n3)nncc2c1,inactive: -3.66%
15,Cc1ccc(NC(=O)Cn2cc(C(=O)c3ccco3)c3ccccc32)cc1C,inactive: -15.2%
16,CC(C)c1nnc(SCC(=O)N2CCOCC2)n1C,inactive: 6.69%
17,CN(c1ccc(C(=O)NCCSC(C)(C)C)cc1)S(=O)(=O)c1ccccc1,inconclusive: -40.2%
18,CCc1nc2ccc(C(=O)N3CCN(c4cc(C)ccc4C)CC3)cc2nc1CC,inconclusive: -41.3%
